Test results published in the supplement of paper PMC11417369.
The other results are listed elsewhere or left out.

system: PfSIP2 AP2 domain 1 (GST-tagged); test: gcPBM binding intensity (ln(normalized median fluorescence intensity)); higher = stronger DNA binding
In short: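 Binding intensity values are the highest Masliner-normalised natural-log median intensity among replicate spots of either probe orientation. The binding step lasted 1 h in 1× PBS with 1% milk, 0.2 mg/ml BSA, 0.5% salmon testes DNA and 0.03% Triton X-100, using GST-tagged P. falciparum DNA-binding domains expressed in E. coli on an Agilent 4 × 180k array of primer-extended double-stranded 36-bp intergenic genomic probes plus negative controls. Alexa488 anti-GST antibody and a 488 nm scan detected bound protein.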

Sequence | gcPBM binding intensity (ln)
TATGTATTATATATTTGTACTCATTCTAATTCCTTC [XGTACX_site7294] | 6.95
ACATATATGTATAATACACACACTAATATATAATTG [CACACA_site1966] | 7.15
ATTTAAAAAAAAACGGAATTTTTTTTTTTTTTAAAG [XGTACX_negctrl_site91] | 6.68
ATATTCATATATTTACGTACATACATTTATATATTT [XGTACX_site7644] | 7.07
TATATTAATGTTCATAGTACGTATGATTAGGAAAAA [XGTACX_site616] | 7.15
GGAAAGACAGTTCACAGTACCCAGGAAATCTGCGGA [XGTACX_site4933] | 6.49
TTTAGTTTTTATATAGCACACATATTGTGATTATGT [CACACA_site8316] | 6.96
AATTTATAAAAGAAGAGGACACATATAAATATAAAT [XGTACX_site59] | 6.96
TGTAGTCTGGAGAAGAGTACATAGTATCTGGTAGCT [XGTACX_site2029] | 6.72
GAATTGTATTGGTACTGTACAATTAAATTAAAAAAA [XGTACX_site1891] | 6.84
AAAAAAAAAAAACACACACACACACCCATATATAAA [CACACA_site1170] | 7.14
ACATAAAATTATTATACATGCATATTTAATTTTTTC [TGCATGCA_site353] | 6.98
TTTTTTGTTAAGTTGGTGCAAACAATAGTTATTGAC | 9.7
TATATCTACTACACACGTACACAAAATAAGATACCT [XGTACX_site7886] | 7.18
GGAGCACCCAGACACACACACACATATATATATATA [CACACA_site336] | 9.19
TATTATATTTTTATTTGTACGTAAAATTAAGTTATG [XGTACX_site2405] | 7.14
AAAAATATAAACAAACGTACGAAGTGATGATATATT [XGTACX_site2242] | 7.02
GTTAAAAGAAAAATATGTACATAAAAAAATTAGAAA [XGTACX_site578] | 6.99
CTCTTGTTTCCATATAGTACGTAATAATATATACAA [XGTACX_site2428] | 7.51

Sequence | gcPBM binding intensity (ln)
AAGATGGTAAAGAATTGTACGCGCATATATATATTT [XGTACX_site3904] | 7.21
TTTTCAATTAAAAAAAAATTATATTTTATTATTACA [CACACA_negctrl_site142] | 6.57
TATATATATATATGATGTACACATTTTATTATTTGT [XGTACX_site1147] | 9.38
AATTTGATAATATCATGTACATGAAAGAATTCATGA [XGTACX_site8463] | 6.69
AATAAAAAAATATGAAATTATGACATATAGCATTTG [TGCATGCA_negctrl_site160] | 6.68
TACATAAATTAAAACACACACACACCCAAAAAAAAA [CACACA_site2261] | 7.12
AAAAAATAAAAAGATACACACATATGTATAATATAC [CACACA_site1496] | 6.91
GTGTATATTATTTTATCACACATGTACATATGTTAA [CACACA_site5473] | 7.16
GGCATAAATATATGCACACACAAAAAAAAAAAAAAA [CACACA_site59] | 7.61
TTTTTTTTTTTAAAAAGTACACAATTAATTAATATA [XGTACX_site8494] | 7.05
ATATTGTTTTATATAGAACACACATAAAAATATATA [CACACA_site8314] | 7.04
TTATTGAAAAAAGAACAAAAAAAAAAAGAAAAATTA [XGTACX_negctrl_site438] | 6.51
TATAAACATTATAAATGTACAAATATATATATATAT [XGTACX_site3218] | 9.2
ATATATATATATATATGTACTTATTTGAATACTAAA [XGTACX_site2330] | 9.31
GAAAGAATAAAATTTACACACATATATATATACATA [CACACA_site2250] | 6.84
AAAATAAGAAATAGATGTACTTATAAATAAATACAA [XGTACX_site4441] | 6.71
TCATTATATCATGGTAGTACTCATTAATAATACGTA [XGTACX_site8701] | 7.2
TATATATTTTTTAAACCACACACAATATAGAGTATA [CACACA_site8106] | 7.24
AATATTATTTAGGAGCGTACGTTTTATTTACATATT [XGTACX_site5188] | 6.8

Sequence | gcPBM binding intensity (ln)
GTTAATAAAAATATATGTACATAATTATTATGAAAA [XGTACX_site3030] | 7.15
GGACATTTTTATAAGGTGCACGGTTTTGATATTACT [GTGCAC_site9892] | 11.1
ATAATGATATATAGTACACACAAAAATGGAAGTAAA [CACACA_site7541] | 7.22
AACCACATACATATAACACACATATACAATATATAT [CACACA_site8607] | 7.29
TGACTATGTATATTTAGTACATAAAATCAATAATAT [XGTACX_site4082] | 7.05
AAGGGTTGCCTGTGTAGTACATATATATATATATAT [XGTACX_site8555] | 9.47
TCATTCATAAAAATAACACACAAAAAAAAAAAAAAA [CACACA_site1800] | 6.92
AAATTATATTATTGAACACACGTTTGGTAATGTTTT [CACACA_site5469] | 6.78
AAATATAAGAAAAAGGTGCTTTTTTTTTTTTTTTTT [GTGCAC_site9700] | 8.42
AGGGAAAAAAAAAAAGTGCATTTGTATTAAATGAAT | 8.62
GTAAACAAAATATTTTGTACATATTTTATATTATTT [XGTACX_site7837] | 6.96
AAAAGATGCGCATACACACAGATGAATAACAAAAAA [CACACA_site6865] | 7.11
GCACATTTTTTTATCACACATATAATTACAATATAA [CACACA_site5585] | 7.74
TACGTATGCCTGTGATGTACATATATATATACATAC [XGTACX_site4728] | 7.06
TTTCGGTTTTTTTTTATTTTTTTTTTTTTATTATTT [CACACA_negctrl_site335] | 6.78
ATATAGGTAAAAAGTATACACACGTTGACACATTCT [CACACA_site1199] | 6.95
ATAATATAATTTTGCAGTACCCAAAAAACAAAATAA [XGTACX_site4827] | 7.05
AATATGATATATATATGTACATATATATAATATAAT [XGTACX_site3072] | 7.35
AAAGTATAATAATACACACACTTTAAAAGTTAAATG [CACACA_site7550] | 7
